Laboratory results as given in publication PMC12040169 (PLOS Biology, 2025).
This is one part of the list.

Tested on: T1, C. trachomatis L2/434/Bu expressing GFP (CTL2-GFP)
T1 construct: L2/434/Bu GFP intracellular growth in HeLa cells
Parameters: species or system HeLa; C. trachomatis total inclusion area by high-content imaging, normalised to DMSO
Conditions: total inclusion area; 28.5 h, 10 µM; inhibitor
Summary of the method: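 After bulk GFP and resorufin fluorescence reads, cells were fixed, stained with Hoechst and imaged by high-content microscopy. Inclusion area and number (GFP) stood in for chlamydial growth, nuclei count (Hoechst) for host cell viability. MICs were derived as for the bulk readout.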

SMILES | % of control remaining
O=C(NCc1cccc(OCC2CCCO2)c1)C1C2CCCCC21 (stereo not shown) [CBK281517] | 96.952
C/C(=N/OCO/N=C(\C)c1cccc([N+](=O)[O-])c1)c1cccc([N+](=O)[O-])c1 [CBK260872] | 97.003
O=C(O)C1Nc2c(Cl)cc(Cl)cc2C2C=CCC12 (stereo not shown) [CBK077855] | 106.199
O=C(c1cc[nH]c1)N1CCN(C(=O)c2ccco2)CC1 [CBK144467] | 100.279
CC(C)(C)c1ccc(NC(=O)n2ccc3c(N4CCNCC4)cccc32)cc1 [CBK003736C] | 0
N#Cc1ccc(Cn2cnc(NC(=O)c3cnccn3)n2)cc1 [CBK305233] | 54.5866
O=C(Nc1ccccc1C(F)(F)F)NC1CC2CCCC(C1)N2C1CC1 (stereo not shown) [CBK143578] | 105.47
Cc1cc(NC(=O)c2cccc(C#N)c2)c2ccccc2n1 [CBK116267] | 110.363
CC(C)Cn1cnc2c(c1=N)C(c1ccccc1)c1ccc(O)cc1O2 (stereo not shown) [CBK287864] | 110.17
CCn1c2ccccc2c2cc(NC(=O)CC(C)CC(=O)O)ccc21 (stereo not shown) [CBK300031] | 79.878
COCCCNC(=O)Cn1cnc2sc(C)cc2c1=O [CBK071899] | 98.875
c1ccc(Oc2ccccc2-c2cc(NCCc3c[nH]cn3)ncn2)cc1 [CBK037845] | 63.174
O=C(NC(c1ccc(Cl)cc1)c1cnccn1)C1CCN(C(=O)N2CCOCC2)CC1 (stereo not shown) [CBK059635] | 104.945
CC(=O)N[C@H]1CC[C@]2(C)CCC([C@H](C)C(=O)N(C)Cc3ccccc3)[C@H](O)[C@H]2[C@@H]1C (stereo partly shown) [CBK289435] | 91.3026
C[C@H]1[C@@H]2[C@@H](O)C([C@H](C)C(=O)N3CCCCC3)CC[C@@]2(C)CC[C@@H]1NC(=O)C1CC1 (stereo partly shown) [CBK289446] | 105.024
CNCC(=O)N(CCc1cc(C(F)(F)F)cc(C(F)(F)F)c1)c1ccc2c(c1)OCO2 [CBK001038T] | 106.145
N#Cc1cccc(Nc2cncc(-c3cccc(N)c3)n2)c1 [CBK065319] | 113.963
Cc1cc(C)cc(-c2nnc(SCCC(=O)NC(N)=O)o2)c1 [CBK295164] | 111.57
O=C(CSc1nc2ccccc2c2nc3ccccc3n12)Nc1ccc(Cl)cc1F [CBK268098] | 106.063
O=C1CC(C(=O)Nc2ccc3c(c2)OCO3)n2c(nc3ccccc32)N1 (stereo not shown) [CBK270177] | 96.5109
CN(Cc1ccccc1)c1ncc(-c2ccc(N3CCOCC3)cc2)n2ccnc12 [CBK091275] | 122.584
CN(C1=NS(=O)(=O)c2ccccc21)c1ccccc1C(=O)O [CBK287094] | 109.012
O=C(CCN1CCN(CCO)CC1)Nc1cccc(Br)c1 [CBK058502] | 41.6237
CCC(C(=O)Nc1nccs1)N(C)Cc1n[nH]c2c1CCC2 (stereo not shown) [CBK307685] | 78.0127
COCc1cc(C[C@@H]2C[C@H](NS(C)(=O)=O)C2(C)C)no1 [CBK289252] | 111.766

SMILES | % of control remaining
CC(C)S(=O)(=O)N1CC2CCCC(O)(c3cccc(F)c3)C2C1 (stereo not shown) [CBK283109] | 93.7707
O=c1[nH]c2ccccc2nc1-c1ccccc1 [CBK016193] | 78.4904
Cc1csc(C(Cc2ccsc2)NC(=O)CCn2ccnc2)n1 (stereo not shown) [CBK285391] | 85.7583
Cc1c(C(=O)N2CCn3nc(CO)cc3C2)n(C)c2ccc(F)cc12 [CBK306552] | 88.7039
Cn1ncc2c(=O)n(Cc3nc(C(C)(C)C)no3)cnc21 [CBK304906] | 31.3347
CN(C)c1cccc(-c2cnc3[nH]c(=O)n(CCc4ccncc4)c3n2)c1 [CBK064628] | 107.027
CN(Cc1ccco1)C(=O)NC1CCCc2c1cnn2CCO (stereo not shown) [CBK306290] | 74.3199
O=C1NCCNC(=O)C2(C/C=C/COc3ccccc31)CCN(C(=O)c1ccc3[nH]nnc3c1)CC2 [CBK292000] | 77.5558
O=C(c1cncnc1)N1CCCC2(CCN(C(=O)c3cc(F)c(F)cc3F)C2)C1 (stereo not shown) [CBK131564] | 52.6497
C[C@]12CN(C(=O)c3ccccc3)C[C@H]1NC(=O)c1ccccc1C2=O [CBK281657] | 76.037
Cc1cc(C)n(CC(C)CNC(=O)Cc2csc(N3CCCC3=O)n2)n1 (stereo not shown) [CBK305624] | 40.3102
CN1CCC(N(C)C(=O)Nc2ccc3c(c2)OCCO3)C1 (stereo not shown) [CBK156008] | 69.2102
CCCCC(=O)N(C)c1c(C)nc2ccc(C(=O)NCc3cccs3)cn12 [CBK147073] | 97.3699
O=C(O)C(Nc1nc(C(F)(F)F)nc2ccccc12)c1ccccc1 (stereo not shown) [CBK269570] | 84.6813
COC(=O)c1sccc1NS(=O)(=O)c1cc(F)c(Br)cc1F [CBK004492] | 90.7374
Cc1[nH]n(-c2nc3ccccc3o2)c(=O)c1Cc1c(Cl)cccc1Cl [CBK085382] | 44.1849
COc1ccccc1N1CCN(C(=O)N(CCN)CCC(C)c2ccccc2)CC1 (stereo not shown) [CBK002137C] | 3.217
COC(=O)c1ccc(N2C(=O)CC(N3CCC(n4c(=O)[nH]c5ccccc54)CC3)C2=O)cc1 (stereo not shown) [CBK268714] | 96.8734
Clc1ccccc1-c1nccnc1NCCc1c[nH]c2ccccc12 [CBK037337] | 90.4607
Cc1ccc2[nH]c(-c3cccc(NC(=O)c4ccc(-n5cnnc5)cc4)c3)nc2c1 [CBK285839] | 71.4595
Cc1ncccc1-c1cc2cccnc2n1CCCNC(=O)C1CC1C (stereo not shown) [CBK282688] | 129.154
CNC(=O)C1(Cc2cccc(-c3cccs3)c2)CCN(C(=O)c2ccccc2)CC1 [CBK285720] | 112.707
O=C(O)c1ccccc1C(=O)N1CCC2(CC1)OCCc1c2[nH]c2ccccc12 [CBK046981] | 103.948
O=C1CC[C@@H](NCc2cccnc2)[C@H](c2cc(F)cc(F)c2)N1 [CBK283130] | 107.049
